From PubChem BioAssay AID1745853 (National Center for Advancing Translational Sciences (NCATS), 2022)
This is one part of the list. These are further read-outs of the screen, such as a control signal, another cell line or another target. No call is given for them.

Assays:
Assay in all cases: Primary Screen for Target Class Profiling of Small Molecule Inhibitors of Methyltransferases
[1] = biological target: Glycine N-methyltransferase (Homo sapiens) (UniProt Q14749); details: purified enzyme, MTase-Glo SAH luminescence; measured here: GNMT inhibition; at 40 µM; stronger effect = lower value
In short: (§1)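 Each enzyme was assayed with SAM and its substrate. SAH formation detected by MTase-Glo luminescence; single-point 40 uM screen[…].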

[2] = biological target: Guanidinoacetate N-methyltransferase (Homo sapiens) (UniProt Q14353); details: purified enzyme, MTase-Glo SAH luminescence; measured here: GAMT inhibition; at 40 µM; stronger effect = lower value
In short: as §1

[3] = biological target: Histamine N-methyltransferase (Homo sapiens) (UniProt P50135); details: purified enzyme, MTase-Glo SAH luminescence; measured here: HNMT inhibition; at 40 µM; stronger effect = lower value
In short: as §1

[4] = biological target: Nicotinamide N-methyltransferase (Homo sapiens) (UniProt P40261); details: purified enzyme, MTase-Glo SAH luminescence; measured here: NNMT inhibition; at 40 µM; stronger effect = lower value
In short: as §1

[5] = biological target: Phenylethanolamine N-methyltransferase (Homo sapiens) (UniProt P11086); details: purified enzyme, MTase-Glo SAH luminescence; measured here: PNMT inhibition; at 40 µM; stronger effect = lower value
In short: as §1
% is set by controls: 0 for no effect and ±100 for the full control effect.

SMILES | activity change, negative = inhibition [1] | activity change, negative = inhibition [2] | activity change, negative = inhibition [3] | activity change, negative = inhibition [4] | activity change, negative = inhibition [5]
Cc1nc(N(C)C2CCCCC2)ncc1C(C)NC(=O)C1(CO)CC1 (stereo unspecified) | -4.05% | -6.09% | -3.54% | -7.17% | -4.77%
CNC(=O)[C@@H]1CN(Cc2ccncc2)C[C@H]1COC | -0.465% | 1.56% | 0.938% | 0.686% | -0.554%
Fc1ccc(C2Nc3ccc(Cl)cc3C3C=CCC32)cc1 (stereo unspecified) | -10.8% | -2.69% | -10.1% | -13.1% | -12.3%
O=C1CCCN1c1ccc(CN2CC(=O)N(Cc3ccccc3)c3ccccc3S2(=O)=O)cc1 | -10.4% | 3.27% | 9.2% | 2.79% | -0.185%
CC(C)c1nccn1CCCNC(=O)c1ccc(-c2cccnc2)nc1 | -1.28% | -1.63% | -48.8% | 0.367% | -4.04%
CN(C)c1nc2c(Br)c(Br)c(Br)c(Br)c2[nH]1 | – | 7.91% | – | -7.29% | 6.6%
CC(C)Cn1c(=O)c2ccc(C(=O)NC(C)C)cc2n2c(=O)n(Cc3c(F)cccc3Cl)nc12 | 1.58% | 0% | 0.833% | 2.05% | 1.49%
C=CC1(C)CC(OC(=O)C(=C)C(O)COC(C)=O)C(C(=C)C(=O)OC)C(O)C1C(=C)CO (stereo unspecified) | 0% | 8.46% | 7.8% | -2.13% | 7.05%
O=C(CN1C2=NCCN2c2ccccc21)c1ccc(-c2ccccc2)cc1 | -7.13% | -0.852% | -43.9% | -34.7% | -20.6%
CCOC(=O)CNC(=O)N1Cc2c(sc3c2CCCC3)-n2cccc2C1c1cccc(C)c1 (stereo unspecified) | -3.28% | 2.56% | -3.59% | -8.99% | -0.929%
CNC(=O)c1cc(C)nc2onc(C3CCCN([S+](=O)([O-])c4ccc(C)cc4)C3)c12 (stereo unspecified) | -25.5% | -4.61% | -2.38% | -16.6% | 5.36%
CCCNC(=O)N[C@@H]1C[C@H](COc2cccc(C)n2)[C@@H](O)[C@H]1O | -1.72% | -0.286% | -8.01% | -2.55% | -3.36%
CCCCN1C(=O)c2cc(C(=O)NCc3ccccc3C)nn2CC1(C)C(=O)NC1CCCC1 (stereo unspecified) | -1.78% | 2.61% | -6.58% | -3.43% | -1.77%
Cc1ccc(NC(=O)N2CCn3cccc3C2C(C)C)cc1 (stereo unspecified) | 0.048% | 2.57% | -7.21% | -5.79% | -4.49%
CCCn1cc(-c2ccncc2)cc1C(=O)NCc1ccc(C)o1 | -14.6% | -10.1% | -18.8% | -19.1% | -10.1%
O=c1c2ccccc2n2c(=O)n(Cc3cccc(F)c3)nc2n1Cc1ccc(F)cc1 | 8.96% | 1.34% | 12.4% | 2.84% | 6.13%
CCOC(=O)c1cc2n(n1)CC(C)(C(=O)NCc1ccccc1OC)N(c1ccc(C)c(Cl)c1)C2=O (stereo unspecified) | -2.38% | 2.54% | 0.222% | -8.42% | -1.41%
Cc1ccc(CN2CCCOCCNC(=O)[C@@H]3CCCC[C@@H]32)o1 | -11.1% | -8.54% | -1.31% | -9.96% | -1.02%
CCCn1c(=O)c2ccc(C(=O)NC3CCCC3)cc2n2c(=O)n(C)nc12 | -1.52% | 6.78% | -0.956% | 0% | 1.27%
N[C@H](C(=O)O)[C@H](Cc1ccccc1)C(=O)O | -2.83% | 3.15% | -1.2% | -9.5% | 1.92%
O=c1c2ccccc2n2c(=O)n(Cc3ccccc3Cl)nc2n1CCc1ccccc1 | -0.784% | 0.769% | 9.49% | -0.929% | -0.19%

SMILES | activity change, negative = inhibition [1] | activity change, negative = inhibition [2] | activity change, negative = inhibition [3] | activity change, negative = inhibition [4] | activity change, negative = inhibition [5]
CC(C)Cn1c(=O)c2ccc(C(=O)NC(C)C)cc2n2c(SCC(=O)Nc3ccc(F)cc3)nnc12 | 0.52% | 0% | 1.01% | -14.1% | -1.4%
CN1CCCCCCN(C(=O)c2ccc3ccccc3n2)[C@H]2CCC[C@H]2C1=O | -2.85% | -9.63% | 0.421% | -8.84% | -15.3%
Cc1nn2c(c1-c1ccccc1OCc1ccccc1)N(C(=O)Cc1ccccc1)CCC2 | -7.6% | -7.17% | -5.05% | -22.2% | -10.7%
CC1(C(=O)NC2CCCCC2)Cn2c(ccc2-c2ccccc2)C(=O)N1Cc1ccccc1 (stereo unspecified) | 2.5% | 1% | 1.51% | 2.18% | 3.7%
CNC(=O)[C@H]1C[C@H](Oc2ccccc2)CN1Cc1cn(C)c2ccc(OC)cc12 | -5.45% | -3.85% | -2.72% | -13.7% | -4.35%
CC(C)CC(=O)N1CCCC(Cc2nc(C3CCOCC3)no2)C1 (stereo unspecified) | 1.14% | 2.49% | 3.17% | -0.54% | 0.752%
CCOC(=O)c1cc2n(n1)CC(C)(C(=O)NC1CCC(C)CC1)N(Cc1ccc(Cl)cc1)C2=O (stereo unspecified) | -0.253% | 4.46% | 0.389% | -2.43% | 1.42%
C=C[C@](C)(O)CC[C@H]1C(C)=CC(=O)[C@H]2C(C)(C)CCC[C@]12C | -6.07% | -6.04% | -0.729% | -18.7% | -18.3%
COc1cc(CCc2ccccc2)c(C(=O)O)c2c1CC(C(C)(C)O)O2 (stereo unspecified) | 0% | 4.69% | 8.77% | -10.6% | 1.98%
CCN1CCC2(CCC1=O)CN(Cc1cscn1)CCN2C (stereo unspecified) | -2.89% | -7.14% | -4.66% | -6.89% | 3.8%
Cc1ccc(NC(=O)N2CCn3cccc3C2C(C)C)c(C)c1 (stereo unspecified) | 14.5% | 2.33% | 4.23% | 5.09% | 9.96%
O=C(NC1CCCCC1)N1CCc2n[nH]c(=O)n2CC1 | 0.096% | -0.71% | -1.05% | -1.08% | 1.24%
Cc1ccc(CSc2nnc3n(CCCOC(C)C)c(=O)c4ccccc4n23)cc1 | -13.9% | 1.65% | 1.01% | -11.1% | -3.83%
CC(C)[C@@H](C)/C=C/[C@@H](C)[C@H]1CC[C@H]2C3=CC=C4C[C@@H](O)CC[C@]4(C)C3=CC[C@]12C | -12.6% | 8.57% | 0.455% | -12% | 3.2%
O=S(=O)(NCC1Cn2cccc2CN1Cc1ccccc1)c1ccccc1 (stereo unspecified) | -5.05% | 0.002% | 0.716% | -3.58% | 3.01%
CCc1nc2c(=O)n(CC(=O)N3CCN(c4cccc(C)c4C)CC3)nc(C)c2s1 | -3.48% | 1.25% | -0.239% | -6.47% | 14.8%
CN1[C@@H](CCC(=O)NCc2ccco2)CNC(=O)[C@@H]2[C@H]1CCN2Cc1nc2ccccc2n1C | -6.91% | 0.496% | -1.24% | -3.6% | -0.153%
CN(Cc1ccccc1)C(=O)[C@H]1O[C@H](CCN2CCOCC2)CC[C@@H]1O | -3.52% | -3.8% | 0.894% | -3.56% | -0.978%
COc1c/c(=C2\C=c3ccccc3=N2)[nH]/c1=C/c1[nH]c(C)cc1C | – | -25% | – | -32.8% | -18.3%
O=C(NCc1ccccc1)c1ccc2c(=O)n(-c3cccc(C(F)(F)F)c3)c(=S)[nH]c2c1 | -2.36% | 0.159% | 6.66% | -17.7% | -5.63%
COc1ccc(-c2cc3n(n2)CC(C)(C(=O)NCc2ccccc2OC)N(Cc2ccccc2Cl)C3=O)cc1 (stereo unspecified) | -2.26% | 0% | 1.13% | -6.04% | -0.439%

SMILES | activity change, negative = inhibition [1] | activity change, negative = inhibition [2] | activity change, negative = inhibition [3] | activity change, negative = inhibition [4] | activity change, negative = inhibition [5]
CC1(C(=O)NC2CCCCC2)Cn2c(nc3ccccc32)C(=O)N1Cc1ccc2c(c1)OCO2 (stereo unspecified) | 1.99% | 0.014% | 5.66% | -1.55% | 1.11%
Cc1nc2c(OCc3ccccc3)cccn2c1CC#N | -13.7% | 10.5% | 1.16% | -7.18% | 3.6%
Cc1cc(C)cc(NC(=O)CSc2nnc3n(C)c(=O)c4ccc(C(=O)NC5CCCC5)cc4n23)c1 | 1.39% | 0% | 4.76% | 9.87% | 6.72%
Cc1ccc(N2C(=O)c3cc(C(C)(C)C)nn3CC2(C)C(=O)NC2CCCCC2)cc1 (stereo unspecified) | -0.21% | 2.15% | 1.83% | 4.74% | 0.562%
COc1ccccc1N1CCN(C(=O)CCc2conc2-c2cccc(F)c2)CC1 | -5.49% | -4.17% | -5.87% | -8.61% | -6.3%
CC1(C(=O)NC2CCCC2)Cn2c(cc3ccccc32)C(=O)N1C1CCN(Cc2ccccc2)CC1 (stereo unspecified) | 2.2% | 0% | 1.38% | 1.77% | -5.13%
C/C(=C\CO[C@@H]1O[C@H](CO[C@H]2OC[C@](O)(CO)[C@H]2O)[C@@H](O)[C@H](O)[C@H]1O)C(C)(C)O | 0.224% | -7.54% | 1.98% | -14.9% | -1.34%
CCNC(=O)N1CCCCCCNC(=O)[C@@H]2C[C@@H](c3nc(Cc4ccccc4)no3)C[C@@H]21 | -0.562% | 0.823% | 0.892% | -0.409% | 1.61%
O=C(CCCc1nnc2n3nc(-c4ccccc4)nc3c3ccccc3n12)N1CCN(c2ccccc2F)CC1 | -7.84% | -3.12% | -3.77% | -8.65% | -6.86%
CCOC(=O)c1cc2n(n1)CC(C)(C(=O)NCCC(C)C)N(Cc1cccc(OC)c1)C2=O (stereo unspecified) | 0.657% | 0% | 3.07% | 2.32% | -5.31%
CNC(=O)C1(N2CCC[C@H]2C(=O)N2CC[C@@H](O)C2)CCCCC1 | -6.43% | -5.68% | -4.61% | -9.4% | -1.07%
CCOC(=O)C1=C(C)NC(C)=C(C(=O)OC)C1c1cccc([N+](=O)[O-])c1 (stereo unspecified) | -1.29% | 9.4% | 10.1% | -16.6% | -4.08%
CC1(C(=O)NC2CCCCCCC2)Cn2c(cc3sccc32)C(=O)N1Cc1ccc(Cl)cc1 (stereo unspecified) | 2.12% | 0% | 6.33% | 6.22% | 2.44%
CCOC(=O)c1ccc2c(c1)[C@@H]1C=CC[C@@H]1[C@H](c1ccccc1OCc1ccccc1)N2 | -9.27% | 4.25% | -11.5% | -6.8% | -9.14%
COCC1CN(C)CC12CCN(C1CCOCC1)CC2 (stereo unspecified) | -2.34% | -9.33% | -2.75% | -3.14% | -1.64%
CCCCN1CCN(C(=O)c2cn3ccnc(-c4ccccc4)c3n2)CC1 | -3.84% | 0.172% | -4.96% | 1.04% | 1.38%
COc1cccc(CN2C(=O)c3ccc(-c4ccco4)n3CC2(C)C(=O)NC2CCCCC2C)c1 (stereo unspecified) | 0.928% | 0% | 9.73% | 8.98% | 4.09%
CCOc1ccc(C(=O)Cn2nc3n(CC(C)C)c(=O)c4ccc(C(=O)NC(C)C)cc4n3c2=O)cc1 | 8.18% | 1.31% | 5.45% | 8.08% | 7.87%
CC1(C(=O)NC2CCCCCC2)Cn2c(cc3ccccc32)C(=O)N1Cc1ccc2c(c1)OCO2 (stereo unspecified) | 3.71% | 0% | 3.51% | -8.38% | -0.629%
